The other results are listed elsewhere or left out.

The assay relates to HSkMC (human skeletal muscle cells). The experiment in a line: cytotoxicity call (relative viability < 0.9). Conditions: 10 µM.
In the case of `Nc1ccc(S(=O)(=O)Nc2ccc(Cl)nn2)cc1`, the cytotoxicity call was “inactive”.
To `C/C=C/C1=CC(=O)[C@H](O)[C@H]1O` belongs “inactive”; to `C[C@@H](N)c1ccc(C(=O)Nc2ccnc3[nH]ccc23)cc1`, “inactive”; to `CN1CCC(=C2c3ccccc3Sc3ccccc32)CC1.O=C(O)C=CC(=O)O`, “inactive”.
With `O=C(N/N=C/[C@H](O)[C@@H](O)[C@H](O)[C@H](O)CO[C@H]1O[C@H](CO)[C@H](O)[C@H](O)[C@H]1O)c1ccccn1`, the cytotoxicity call is “inactive”.
To `Cc1noc(C)c1S(=O)(=O)N(C)C[C@@H]1Oc2ccc(NC(=O)Nc3ccc4c(c3)OCO4)cc2CC(=O)N([C@@H](C)CO)C[C@H]1C` belongs “inactive”; to `C[C@@H]1CN([C@@H](C)CO)C(=O)c2cccc(NS(C)(=O)=O)c2O[C@H]1CN(C)Cc1ccc(C(F)(F)F)cc1`, “inactive”; to `O=C(C[C@H]1C=C[C@H](NC(=O)c2ccc(F)cc2)[C@H](CO)O1)NCc1ccncn1`, “inactive”.
Then `Cc1noc(C)c1S(=O)(=O)Nc1ccc2c(c1)C(=O)N([C@H](C)CO)C[C@@H](C)[C@H](CN(C)C(=O)Nc1ccccc1)O2`, with “inactive”.
Consider `C[C@@H]1CN([C@H](C)CO)S(=O)(=O)c2ccc(C#Cc3ccncc3)cc2O[C@H]1CN(C)C(=O)Nc1ccc2c(c1)OCO2`, for which the cytotoxicity call is “inactive”.
To `C[C@@H]1CN([C@H](C)CO)C(=O)Cc2cc(NS(C)(=O)=O)ccc2O[C@H]1CN(C)S(=O)(=O)c1cn(C)cn1` belongs “inactive”; to `C[C@H]1CN([C@@H](C)CO)C(=O)c2cc(NC(=O)Nc3ccc(C(F)(F)F)cc3)ccc2O[C@H]1CN(C)Cc1ccncc1`, “inactive”; to `CC(C)C[C@H](NC(=O)[C@H](CCc1ccccc1)NC(=O)CN1CCOCC1)C(=O)N[C@@H](Cc1ccccc1)C(=O)N[C@@H](CC(C)C)C(=O)[C@@]1(C)CO1`, “active”.
To `C[C@@H]1CN([C@@H](C)CO)C(=O)Cc2cc(NC(=O)C3CCCCC3)ccc2O[C@@H]1CN(C)Cc1ccc(C(=O)Nc2ccccc2N)cc1` belongs “inactive”; to `C[C@@H]1CCCCO[C@@H](CN(C)CC2CCCCC2)[C@@H](C)CN([C@H](C)CO)C(=O)c2cc(NC(=O)Nc3cccc4ccccc34)ccc2O1`, “active”; to `CO[C@H]1CN(C)C(=O)c2cc(NC(=O)C3CCOCC3)ccc2OC[C@H](C)N(Cc2cccnc2)C[C@H]1C`, “inactive”.
On to `C[C@H]1CN([C@@H](C)CO)S(=O)(=O)c2ccc(C#CC3CC3)cc2O[C@H]1CN(C)Cc1ccc(F)cc1`, for which the cytotoxicity call is “inactive”.
Then `COc1ccc(S(=O)(=O)Nc2ccc3c(c2)CC(=O)N([C@@H](C)CO)C[C@H](C)[C@@H](CN(C)Cc2ccc(-c4ccccc4)cc2)O3)cc1`, with “inactive”; and `C[C@H]1CCCCO[C@H](CN(C)C(=O)c2ccccc2)[C@@H](C)CN([C@@H](C)CO)C(=O)c2cc(NS(=O)(=O)c3ccc(F)cc3)ccc2O1`, with “inactive”.
To `COc1ccc(NC(=O)Nc2ccc3c(c2)C(=O)N([C@H](C)CO)C[C@H](C)[C@H](CN(C)C(=O)CCC(F)(F)F)OCCCC[C@@H](C)O3)cc1` belongs “inactive”; to `CC(=O)SC1CC2=CC(=O)CCC2(C)C2CCC3(C)C(CCC34CCC(=O)O4)C12` (centres undefined), “inactive”.
To `C[C@H](CO)N1C[C@H](C)[C@H](CN(C)Cc2ccc(C(=O)Nc3ccccc3N)cc2)Oc2ccc(NC(=O)Nc3ccc(C(F)(F)F)cc3)cc2C1=O` belongs “active”; to `C[C@@H]1CCCCO[C@H](CN(C)C(=O)C2CCCCC2)[C@@H](C)CN([C@H](C)CO)C(=O)c2cc(NC(=O)c3ccncc3)ccc2O1`, “inactive”; to `C[C@@H]1CN([C@@H](C)CO)C(=O)Cc2cc(NC(=O)CCN3CCOCC3)ccc2O[C@H]1CN(C)Cc1ccc(C(=O)O)cc1`, “inactive”.
As to `C[C@@H]1CN([C@@H](C)CO)C(=O)Cc2cc(NC(=O)CCCCCC(=O)Nc3ccccc3N)ccc2O[C@@H]1CN(C)Cc1ccc(Cl)c(Cl)c1`, the cytotoxicity call was “inactive”.
To `COc1ccc(S(=O)(=O)N(C)C[C@@H]2Oc3ccc(N(C)C)cc3C(=O)N([C@@H](C)CO)C[C@H]2C)cc1` belongs “inactive”; to `Cc1noc(C)c1NC(=O)Nc1ccc2c(c1)C(=O)N([C@H](C)CO)C[C@@H](C)[C@@H](CN(C)C(=O)Nc1c(C)noc1C)OCCCC[C@@H](C)O2`, “inactive”.
To `Cc1ccc(S(=O)(=O)Nc2cccc3c2O[C@H](CN(C)Cc2ccc(C(F)(F)F)cc2)[C@@H](C)CN([C@H](C)CO)C3=O)cc1` belongs “inactive”; to `O=C(C[C@H]1C=C[C@@H](NC(=O)CN2CCOCC2)[C@@H](CO)O1)NC1CCC1`, “inactive”.

Source of the values: the antibiotic and cytotoxicity screens of Wong et al. (2023).
